# Measured values from the supplement of paper PMC8728848.
# Some of the results follow.
# How the values were obtained:
# Assay in all cases: glycan array binding signal (z-score within array); higher = stronger binding
# Conditions in all cases: glycan notation: IUPAC condensed, linker removed
# [1] = target: Gal(b1-4)GlcNAc(b1-3)Gal(b1-4)GlcNAc(b1-3)[Gal(b1-4)GlcNAc(b1-3)Gal(b1-4)GlcNAc(b1-6)]GalNAc
# Method in brief: (§1)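 Glycan array binding is given as a within-array Z-score, which can be read as non-binding when negative. The arrays, 3228 of them, came from the Consortium for Functional Glycomics database and were retained only where the protein sequence was available. Z-scores were averaged across arrays of the same protein sequence at different concentrations or buffers and across linkers.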
# [2] = target: Gal(b1-4)GlcNAc(b1-3)Gal(b1-4)GlcNAc(b1-6)[Gal(b1-3)]GalNAc
# Method in brief: as §1
# [3] = target: Gal(b1-4)GlcNAc(b1-3)Gal(b1-4)[Fuc(a1-3)]GlcNAc(b1-3)Gal(b1-4)[Fuc(a1-3)]GlcNAc
# Method in brief: as §1
# [4] = target: Gal(b1-4)GlcNAc(b1-3)GalNAc
# Method in brief: as §1
# [5] = target: Gal(b1-4)GlcNAc(b1-3)[Fuc(a1-3)GlcNAc(b1-6)]Gal(b1-4)Glc
# Method in brief: as §1
# [6] = target: Gal(b1-4)GlcNAc(b1-3)[Gal(b1-4)GlcNAc(b1-6)]Gal(b1-4)GlcNAc
# Method in brief: as §1
# [7] = target: Gal(b1-4)GlcNAc(b1-3)[GlcNAc(b1-6)]Gal(b1-4)GlcNAc
# Method in brief: as §1
# [8] = target: Gal(b1-4)GlcNAc(b1-6)Gal(b1-4)GlcNAc
# Method in brief: as §1
# [9] = target: Gal(b1-4)GlcNAc(b1-6)GalNAc
# Method in brief: as §1
# [10] = target: Gal(b1-4)GlcNAc(b1-6)[Gal(b1-3)]GalNAc
# Method in brief: as §1
# [11] = target: Gal(b1-4)GlcNAc(b1-6)[Gal(b1-4)GlcNAc(b1-3)]GalNAc
# Method in brief: as §1
# [12] = target: Gal(b1-4)GlcNAc6P
# Method in brief: as §1
# [13] = target: Gal(b1-6)Gal
# Method in brief: as §1
# [14] = target: Gal3S(b1-3)GalNAc
# Method in brief: as §1
# [15] = target: Gal3S(b1-3)GlcNAc
# Method in brief: as §1
# [16] = target: Gal3S(b1-3)[Fuc(a1-4)]GlcNAc
# Method in brief: as §1
# [17] = target: Gal3S(b1-4)Glc
# Method in brief: as §1
# [18] = target: Gal3S(b1-4)Glc6S
# Method in brief: as §1
# [19] = target: Gal3S(b1-4)GlcNAc
# Method in brief: as §1
# [20] = target: Gal3S(b1-4)[Fuc(a1-3)]Glc6S
# Method in brief: as §1
# [21] = target: Gal3S(b1-4)[Fuc(a1-3)]GlcNAc
# Method in brief: as §1
# [22] = target: Gal3S(b1-4)[Fuc(a1-3)]GlcNAc6S
# Method in brief: as §1
# [23] = target: Gal3S4S(b1-4)GlcNAc
# Method in brief: as §1
# [24] = target: Gal3S6S(b1-4)GlcNAc
# Method in brief: as §1
# [25] = target: Gal3S6S(b1-4)GlcNAc6S
# Method in brief: as §1
# [26] = target: Gal4S(b1-4)GlcNAc
# Method in brief: as §1
# [27] = target: Gal4S6S(b1-4)GlcNAc
# Method in brief: as §1
# [28] = target: Gal6P(b1-4)GlcNAc
# Method in brief: as §1
# [29] = target: Gal6S(b1-3)GlcNAc
# Method in brief: as §1
# [30] = target: Gal6S(b1-3)GlcNAc6S
# Method in brief: as §1
# [31] = target: Gal6S(b1-4)Glc
# Method in brief: as §1
# [32] = target: Gal6S(b1-4)Glc6S
# Method in brief: as §1
# [33] = target: Gal6S(b1-4)GlcNAc
# Method in brief: as §1
# [34] = target: Gal6S(b1-4)GlcNAc6S
# Method in brief: as §1
# [35] = target: GalNAc(a1-3)Gal
# Method in brief: as §1
# [36] = target: GalNAc(a1-3)GalNAc
# Method in brief: as §1
# [37] = target: GalNAc(a1-3)GalNAc(b1-3)Gal(a1-4)Gal(b1-4)Glc
# Method in brief: as §1
binder,measurement,setting,value
"MGL2 (Mus musculus), Q8JZN1 (protein) MTMRYENFQNLEREEKNQEMRNGDKKGGMESPKFALIPSQSFLWRILSWTHLLLFSLGLSLLLLVVISVIGSQNSQLRRDLGTLRAILDNTTSKIKAEFQSLDSRADNFEKGISSLKVDVEDHRQELQAGRDLSQKVTSLESTLEKREQALKTDLSDLTDHVQQLETDLKALTCQLANLKNNGSEVACCPLHWTEHEGSCYWFSESEKSWPEADKYCRLENSHLVVVNSLEEQNFLQNRLANVLSWMGLTDQNGPWRWVDGTDFDKGFKNWRPLQPDNWHGHMLGGGEDCAHFSYDGRWNDDVCQRHYHWICETELGKASSAHSPQLIASVP",glycan array binding signal (z-score),[1],0.385
same,glycan array binding signal (z-score),[2],0.248
same,glycan array binding signal (z-score),[3],-0.1
same,glycan array binding signal (z-score),[4],-0.178
same,glycan array binding signal (z-score),[5],-0.109
same,glycan array binding signal (z-score),[6],-0.197
same,glycan array binding signal (z-score),[7],-0.273
same,glycan array binding signal (z-score),[8],-0.272
same,glycan array binding signal (z-score),[9],3.5
same,glycan array binding signal (z-score),[10],0.062
same,glycan array binding signal (z-score),[11],-0.133
same,glycan array binding signal (z-score),[12],-0.143
same,glycan array binding signal (z-score),[13],-0.238
same,glycan array binding signal (z-score),[14],-0.199
same,glycan array binding signal (z-score),[15],-0.197
same,glycan array binding signal (z-score),[16],-0.046
same,glycan array binding signal (z-score),[17],-0.22
same,glycan array binding signal (z-score),[18],-0.033
same,glycan array binding signal (z-score),[19],-0.175
same,glycan array binding signal (z-score),[20],-0.145
same,glycan array binding signal (z-score),[21],-0.228
same,glycan array binding signal (z-score),[22],-0.176
same,glycan array binding signal (z-score),[23],-0.184
same,glycan array binding signal (z-score),[24],-0.192
same,glycan array binding signal (z-score),[25],-0.099
same,glycan array binding signal (z-score),[26],-0.134
same,glycan array binding signal (z-score),[27],-0.093
same,glycan array binding signal (z-score),[28],-0.323
same,glycan array binding signal (z-score),[29],-0.151
same,glycan array binding signal (z-score),[30],-0.13
same,glycan array binding signal (z-score),[31],-0.238
same,glycan array binding signal (z-score),[32],-0.127
same,glycan array binding signal (z-score),[33],-0.276
same,glycan array binding signal (z-score),[34],-0.203
same,glycan array binding signal (z-score),[35],1.48
same,glycan array binding signal (z-score),[36],-0.176
same,glycan array binding signal (z-score),[37],-0.259
